{"source": "the supplement of paper PMC8728848", "binders": {"B1": {"name": "Siglec-9 (Homo sapiens), Q9Y336 (protein)", "chain": "MLLLLLPLLWGRERAEGQTSKLLTMQSSVTVQEGLCVHVPCSFSYPSHGWIYPGPVVHGYWFREGANTDQDAPVATNNPARAVWEETRDRFHLLGDPHTKNCTLSIRDARRSDAGRYFFKMEKGSIKWNYKHHRLSVNVTALTHRPNILIPGTLESGCPQNLTCSVPWACEQGTPPMISWIGTSVSPLDPSTTRSSVLTLIPQPQDHGTSLTCQVTFPGASVTTNKTVHLNVSYPPQNLTMTVFQGDGTVSTVLGNGSSLSLPEGQSLRLVCAVDAVDSNPPARLSLSWRGLTLCPSQPSNPGVLELPWVHLRDAAEFTCRAQNPLGSQQVYLNVSLQSKATSGVTQGVVGGAGATALVFLSFCVIFVVVRSCRKKSARPAAGVGDTGIEDANAVRGSASQGPLTEPWAEDSPPDQPPPASARSSVGEGELQYASLSFQMVKPWDSRGQEATDTEYSEIKIHR"}}, "test_in_all_cases": "glycan array binding signal (z-score within array); higher = stronger binding", "details_in_all_cases": "glycan notation: IUPAC condensed, linker removed; mutation: R120K", "key": {"[1]": {"molecular_target": "Neu5Ac(a2-3)Gal(b1-4)GlcNAc(b1-3)[Neu5Ac(a2-3)Gal(b1-4)GlcNAc(b1-6)]GalNAc", "procedure,_shortened": "(§1)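 The Consortium for Functional Glycomics database supplied 3228 glycan arrays, of which those lacking an available protein sequence were dropped. The binding signal, a within-array Z-score, was averaged across arrays of the same protein sequence and across linkers. Negative scores can be read as non-binding.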"}, "[2]": {"molecular_target": "Neu5Ac(a2-3)Gal(b1-4)GlcNAc(b1-6)GalNAc", "procedure,_shortened": "as §1"}, "[3]": {"molecular_target": "Neu5Ac(a2-3)Gal(b1-4)GlcNAc(b1-6)[Gal(b1-3)]GalNAc", "procedure,_shortened": "as §1"}, "[4]": {"molecular_target": "Neu5Ac(a2-3)Gal(b1-4)GlcNAc(b1-6)[Neu5Ac(a2-3)Gal(b1-3)]GalNAc", "procedure,_shortened": "as §1"}, "[5]": {"molecular_target": "Neu5Ac(a2-3)Gal(b1-4)GlcNAc6S", "procedure,_shortened": "as §1"}, "[6]": {"molecular_target": "Neu5Ac(a2-3)Gal(b1-4)[Fuc(a1-3)]GlcNAc", "procedure,_shortened": "as §1"}, "[7]": {"molecular_target": "Neu5Ac(a2-3)Gal(b1-4)[Fuc(a1-3)]GlcNAc(b1-2)Man", "procedure,_shortened": "as §1"}, "[8]": {"molecular_target": "Neu5Ac(a2-3)Gal(b1-4)[Fuc(a1-3)]GlcNAc(b1-3)Gal", "procedure,_shortened": "as §1"}, "[9]": {"molecular_target": "Neu5Ac(a2-3)Gal(b1-4)[Fuc(a1-3)]GlcNAc(b1-3)Gal(b1-4)GlcNAc", "procedure,_shortened": "as §1"}, "[10]": {"molecular_target": "Neu5Ac(a2-3)Gal(b1-4)[Fuc(a1-3)]GlcNAc(b1-3)Gal(b1-4)[Fuc(a1-3)]GlcNAc(b1-3)Gal(b1-4)[Fuc(a1-3)]GlcNAc", "procedure,_shortened": "as §1"}, "[11]": {"molecular_target": "Neu5Ac(a2-3)Gal(b1-4)[Fuc(a1-3)]GlcNAc(b1-3)GalNAc", "procedure,_shortened": "as §1"}, "[12]": {"molecular_target": "Neu5Ac(a2-3)Gal(b1-4)[Fuc(a1-3)]GlcNAc(b1-6)[Gal(b1-3)]GalNAc", "procedure,_shortened": "as §1"}, "[13]": {"molecular_target": "Neu5Ac(a2-3)Gal(b1-4)[Fuc(a1-3)]GlcNAc(b1-6)[Neu5Ac(a2-3)Gal(b1-3)]GalNAc", "procedure,_shortened": "as §1"}, "[14]": {"molecular_target": "Neu5Ac(a2-3)Gal(b1-4)[Fuc(a1-3)]GlcNAc6S", "procedure,_shortened": "as §1"}, "[15]": {"molecular_target": "Neu5Ac(a2-3)Gal6S(b1-4)GlcNAc", "procedure,_shortened": "as §1"}, "[16]": {"molecular_target": "Neu5Ac(a2-3)Gal6S(b1-4)[Fuc(a1-3)]GlcNAc", "procedure,_shortened": "as §1"}, "Neu5Ac(a2-3)GalNAc": {"molecular_target": "Neu5Ac(a2-3)GalNAc", "procedure,_shortened": "as §1"}, "[17]": {"molecular_target": "Neu5Ac(a2-3)GalNAc(b1-4)GlcNAc", "procedure,_shortened": "as §1"}, "[18]": {"molecular_target": "Neu5Ac(a2-3)[GalNAc(b1-4)]Gal(b1-4)Glc", "procedure,_shortened": "as §1"}, "[19]": {"molecular_target": "Neu5Ac(a2-3)[GalNAc(b1-4)]Gal(b1-4)GlcNAc", "procedure,_shortened": "as §1"}, "[20]": {"molecular_target": "Neu5Ac(a2-3)[GalNAc(b1-4)]Gal(b1-4)GlcNAc(b1-3)GalNAc", "procedure,_shortened": "as §1"}, "[21]": {"molecular_target": "Neu5Ac(a2-3)[Neu5Ac(a2-6)]GalNAc", "procedure,_shortened": "as §1"}, "Neu5Ac(a2-6)Gal": {"molecular_target": "Neu5Ac(a2-6)Gal", "procedure,_shortened": "as §1"}, "[22]": {"molecular_target": "Neu5Ac(a2-6)Gal(b1-3)GlcNAc(b1-3)[Gal(b1-4)GlcNAc(b1-6)]Gal(b1-4)Glc", "procedure,_shortened": "as §1"}, "Neu5Ac(a2-6)Gal(b1-4)Glc": {"molecular_target": "Neu5Ac(a2-6)Gal(b1-4)Glc", "procedure,_shortened": "as §1"}, "[23]": {"molecular_target": "Neu5Ac(a2-6)Gal(b1-4)GlcNAc", "procedure,_shortened": "as §1"}, "[24]": {"molecular_target": "Neu5Ac(a2-6)Gal(b1-4)GlcNAc(b1-2)Man", "procedure,_shortened": "as §1"}, "[25]": {"molecular_target": "Neu5Ac(a2-6)Gal(b1-4)GlcNAc(b1-2)Man(a1-3)Man(b1-4)GlcNAc(b1-4)GlcNAc", "procedure,_shortened": "as §1"}, "[26]": {"molecular_target": "Neu5Ac(a2-6)Gal(b1-4)GlcNAc(b1-2)Man(a1-3)[Gal(b1-4)GlcNAc(b1-2)Man(a1-6)]Man(b1-4)GlcNAc(b1-4)GlcNAc", "procedure,_shortened": "as §1"}, "[27]": {"molecular_target": "Neu5Ac(a2-6)Gal(b1-4)GlcNAc(b1-2)Man(a1-3)[GlcNAc(b1-2)Man(a1-6)]Man(b1-4)GlcNAc(b1-4)GlcNAc", "procedure,_shortened": "as §1"}, "[28]": {"molecular_target": "Neu5Ac(a2-6)Gal(b1-4)GlcNAc(b1-2)Man(a1-3)[GlcNAc(b1-4)][Neu5Ac(a2-6)Gal(b1-4)GlcNAc(b1-2)Man(a1-6)]Man(b1-4)GlcNAc(b1-4)GlcNAc", "procedure,_shortened": "as §1"}}, "note": "The other results are listed elsewhere or left out."}
{"binder": "B1", "values": [{"measurement": "glycan array binding signal (z-score)", "setting": "[1]", "result": 0.148}, {"measurement": "glycan array binding signal (z-score)", "setting": "[2]", "result": -0.097}, {"measurement": "glycan array binding signal (z-score)", "setting": "[3]", "result": -0.302}, {"measurement": "glycan array binding signal (z-score)", "setting": "[4]", "result": -0.214}, {"measurement": "glycan array binding signal (z-score)", "setting": "[5]", "result": -0.216}, {"measurement": "glycan array binding signal (z-score)", "setting": "[6]", "result": -0.413}, {"measurement": "glycan array binding signal (z-score)", "setting": "[7]", "result": 0.924}, {"measurement": "glycan array binding signal (z-score)", "setting": "[8]", "result": -0.088}, {"measurement": "glycan array binding signal (z-score)", "setting": "[9]", "result": 0.066}, {"measurement": "glycan array binding signal (z-score)", "setting": "[10]", "result": -0.403}, {"measurement": "glycan array binding signal (z-score)", "setting": "[11]", "result": -0.755}, {"measurement": "glycan array binding signal (z-score)", "setting": "[12]", "result": -0.345}, {"measurement": "glycan array binding signal (z-score)", "setting": "[13]", "result": -0.008}, {"measurement": "glycan array binding signal (z-score)", "setting": "[14]", "result": 0.257}, {"measurement": "glycan array binding signal (z-score)", "setting": "[15]", "result": 0.077}, {"measurement": "glycan array binding signal (z-score)", "setting": "[16]", "result": -0.471}, {"measurement": "glycan array binding signal (z-score)", "setting": "Neu5Ac(a2-3)GalNAc", "result": -0.241}, {"measurement": "glycan array binding signal (z-score)", "setting": "[17]", "result": -0.284}, {"measurement": "glycan array binding signal (z-score)", "setting": "[18]", "result": -0.504}, {"measurement": "glycan array binding signal (z-score)", "setting": "[19]", "result": -0.343}, {"measurement": "glycan array binding signal (z-score)", "setting": "[20]", "result": 0.273}, {"measurement": "glycan array binding signal (z-score)", "setting": "[21]", "result": -0.301}, {"measurement": "glycan array binding signal (z-score)", "setting": "Neu5Ac(a2-6)Gal", "result": -0.301}, {"measurement": "glycan array binding signal (z-score)", "setting": "[22]", "result": -0.34}, {"measurement": "glycan array binding signal (z-score)", "setting": "Neu5Ac(a2-6)Gal(b1-4)Glc", "result": -0.149}, {"measurement": "glycan array binding signal (z-score)", "setting": "[23]", "result": -0.396}, {"measurement": "glycan array binding signal (z-score)", "setting": "[24]", "result": -0.208}, {"measurement": "glycan array binding signal (z-score)", "setting": "[25]", "result": -0.286}, {"measurement": "glycan array binding signal (z-score)", "setting": "[26]", "result": -0.219}, {"measurement": "glycan array binding signal (z-score)", "setting": "[27]", "result": -0.503}, {"measurement": "glycan array binding signal (z-score)", "setting": "[28]", "result": -0.235}]}
